The list shows a part of the results.

The assay concerns the target T1, OsWOX13 (Oryza sativa, UniProt Q5QMM3 1-267).
T1 sequence: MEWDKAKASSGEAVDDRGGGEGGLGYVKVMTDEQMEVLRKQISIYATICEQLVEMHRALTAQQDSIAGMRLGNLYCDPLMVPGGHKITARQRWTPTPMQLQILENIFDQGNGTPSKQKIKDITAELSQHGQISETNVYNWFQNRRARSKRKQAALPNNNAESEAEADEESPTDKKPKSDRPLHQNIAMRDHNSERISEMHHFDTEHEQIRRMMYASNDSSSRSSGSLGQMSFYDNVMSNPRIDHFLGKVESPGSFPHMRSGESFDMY
The assay is described as follows: protein-binding microarray (RPBM); PBS, 2% BSA, 51.3 ng/ul salmon testes DNA, 50 uM zinc acetate, 200 nM TF, 25 C, 1 h; high values mean tight binding. The conditions noted are these: protein: recombinant; tags: N-terminal polyhistidine and DsRed monomer fusion (pET32a); label: CyDye5-dUTP incorporated in the synthesized complementary strand; 3' TTTTT single-stranded linker to array surface; dsDNA, one strand shown. In a few lines:
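The binding signal is fluorescence intensity per array feature (arbitrary units). Readings came from an Axon 4000B scanner after a washed, 2% BSA-blocked, double-stranded custom Agilent array had been incubated for 1 h at 25 °C with 200 nM protein and 50 µM zinc acetate. The protein was a Ni–NTA-purified transcription factor fused N-terminally to polyhistidine and DsRed, expressed in E. coli BL21-CodonPlus.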
Consider “TATCTAGATTAGAATTTTCTTAATTTTACAATTGTATGATCGGAGTCACCTAGTGCAG”, for which the binding signal is 21600 fluorescence intensity (a.u.).
For “GACAGCGAGTGACAAATAATTAATTGTAGTAATAATTAATCGGAGTCACCTAGTGCAG”, the binding signal was 7980 fluorescence intensity (a.u.).
The value for “CTATAAATGGAGATGATCAGAGGAAAGGAAACTATGTTTTCGGAGTCACCTAGTGCAG” was 3460 fluorescence intensity (a.u.); that for “AATCTATACCTATACTAATTGGACACTTTCTACGAGCTCCCGGAGTCACCTAGTGCAG” was 6470 fluorescence intensity (a.u.); that for “CGGATAAATTTAAGACAGCCCAAATATTCCTAAAACGGAGCGGAGTCACCTAGTGCAG” was 6940 fluorescence intensity (a.u.).
In the case of “TAGAGATTGAGAATGTTTTCAGTGCAATTGTATCTCCTTGCGGAGTCACCTAGTGCAG” it was 15900 fluorescence intensity (a.u.); in that of “ACCGATTTGTTTGTATTATTTACAATCATTTAGCTACTGCCGGAGTCACCTAGTGCAG”, 3800 fluorescence intensity (a.u.).
The value for “TACGTAACCCTTAATTGGTACACACTTGTTTATATTATTTCGGAGTCACCTAGTGCAG” was 11100 fluorescence intensity (a.u.); that for “TAAATAAATTCTTAAATTTAAAATACACAAGAATTTCAAGCGGAGTCACCTAGTGCAG” was 4560 fluorescence intensity (a.u.); that for “AGATCAAATCAACTCCATGAATTATGAATCATCATTCATGCGGAGTCACCTAGTGCAG” was 8570 fluorescence intensity (a.u.).
For “CTTCGATTGGTTTGTTGGTTTGACTGGAATTCGGATGGATCGGAGTCACCTAGTGCAG”, the binding signal is 18200 fluorescence intensity (a.u.).
In the case of “CTGCACATGATTTCAATCTACTATGGACATTCTCACTCTCCGGAGTCACCTAGTGCAG” it was 20000 fluorescence intensity (a.u.); in that of “AAAACCTGTGATTAATGCAGTCCTATTACCATCTCAGGCCCGGAGTCACCTAGTGCAG”, 7410 fluorescence intensity (a.u.).
In the case of “TACTGCTGGATTGAATTAATGGATCAAGACTGAATTTATCCGGAGTCACCTAGTGCAG” it was 12100 fluorescence intensity (a.u.); in that of “TGCTGGTAAATTATTTCATATATTATTACTCCTAATAAGTCGGAGTCACCTAGTGCAG”, 4900 fluorescence intensity (a.u.).
The value for “TCTCTGCTGATTTACTGATAAGAACATGCTCAATTGTTTCCGGAGTCACCTAGTGCAG” was 8670 fluorescence intensity (a.u.).
For the sequence “CGCCTTAAATTATCTCTCCTCCTCGCCGCGTTCCTCTCGCCGGAGTCACCTAGTGCAG”, the binding signal was 9220 fluorescence intensity (a.u.).
The value for “CATGCCAGATTGCGATTGAAAGCTGGAAACTACGGCTCAACGGAGTCACCTAGTGCAG” was 4240 fluorescence intensity (a.u.); that for “GTAGACAGGTTACATCCAGACCATCACCAGTCACTCAGCTCGGAGTCACCTAGTGCAG” was 3290 fluorescence intensity (a.u.).
The value for “AATCTTTCCAATCAGAACATATACACTCATTACGTTTGCTCGGAGTCACCTAGTGCAG” was 8980 fluorescence intensity (a.u.).
“TCTTTTCAAATTCCTAATCAACGCACCATTTCATATGGATCGGAGTCACCTAGTGCAG”: the binding signal was 3150 fluorescence intensity (a.u.).
In the case of “AATTTCTCTTTAATTAACTTTCCTGTCATTTTCTCACCCCCGGAGTCACCTAGTGCAG” it was 5780 fluorescence intensity (a.u.); in that of “ATAATGATAATTTAATTATTAATTTAATAAAACTATTTTGCGGAGTCACCTAGTGCAG”, 52100 fluorescence intensity (a.u.); in that of “TTTGAAAATTAATTATAAATATTAAACGTAGACTATTAATCGGAGTCACCTAGTGCAG”, 9000 fluorescence intensity (a.u.).
As to “AACCTTCGCTGTCTCAATCAGAAAACTGCTGTTTCCACCCCGGAGTCACCTAGTGCAG”, the binding signal is 5010 fluorescence intensity (a.u.).
The value for “TTTCTTTTGAAATTGATTACAATCTACATAAGGAGAGTCGCGGAGTCACCTAGTGCAG” was 16500 fluorescence intensity (a.u.); that for “CGAATCTGATTAAGGGTGTGTTTAGTTCACGCTAAAATTGCGGAGTCACCTAGTGCAG” was 4820 fluorescence intensity (a.u.); that for “AGCAATTAAGCAATCATTACTTCCGTTTCAAAACATAAGCCGGAGTCACCTAGTGCAG” was 8040 fluorescence intensity (a.u.).
The value for “TAAACACTAAATTACTTCCATTAAACCTAGCATTGAATATCGGAGTCACCTAGTGCAG” was 6250 fluorescence intensity (a.u.); that for “TGTTAACTCTTAGATTAATTTATAGATAGTGGTTTGCTCTCGGAGTCACCTAGTGCAG” was 13400 fluorescence intensity (a.u.).
In the case of “TACTAATCATACACTGATGCGCTTAGAACTAACTTAACCACGGAGTCACCTAGTGCAG” it was 5730 fluorescence intensity (a.u.); in that of “ATCCGTTTTGATTAATGACCTAATCTCCAACTAAACTCCGCGGAGTCACCTAGTGCAG”, 7260 fluorescence intensity (a.u.); in that of “ATAAGATTAGCTATAATCTTATCCAACAAAATTATGTGCTCGGAGTCACCTAGTGCAG”, 27300 fluorescence intensity (a.u.).
With “ATGTAATTAATTAAAATAAGCAAAGGTGCCCGTGCGTTGCCGGAGTCACCTAGTGCAG”, the binding signal was 43700 fluorescence intensity (a.u.).
The value for “CACACCTGACCTGACTAATCAGTAATCACCACTAATGCATCGGAGTCACCTAGTGCAG” was 5140 fluorescence intensity (a.u.); that for “GCAAATCACATTACCATGCAATCCCCGGCCCATAAGTCATCGGAGTCACCTAGTGCAG” was 3810 fluorescence intensity (a.u.); that for “CGAGTGCAATGTGATTGGTAGGGGTGGCTCAGGGAAAGTGCGGAGTCACCTAGTGCAG” was 16600 fluorescence intensity (a.u.).
Take “ACTGATTTTAACTTACTACACACGATGGAAACACGATTGGCGGAGTCACCTAGTGCAG”: the binding signal was 22200 fluorescence intensity (a.u.).
The value for “TGTGACACATTATAATGAATCTGGATAGACGGACCGCCTACGGAGTCACCTAGTGCAG” was 6200 fluorescence intensity (a.u.); that for “CGACACGCTGATTAATTATTTGGCAAAATCGCGCTATATACGGAGTCACCTAGTGCAG” was 19200 fluorescence intensity (a.u.); that for “TATGAATAATTATAATAATTAATAATTTGCAAAATGGGCCCGGAGTCACCTAGTGCAG” was 33800 fluorescence intensity (a.u.).
Turning to “CTTTCGCCGGTAAAATGGATTGATGGAAGCGTGTACCGTGCGGAGTCACCTAGTGCAG”, the binding signal was 3940 fluorescence intensity (a.u.).

The values are drawn from PMC7819943, “Rice protein-binding microarrays: a tool to detect cis-acting elements near promoter regions in rice”.
